# Some of the results follow. At the low end of the ranking the order means little. Measured with an extract: partners may take part in the binding.
# Target: T1, HNF4alpha2 (COS-7 nuclear extract) (UniProt P41235)
# T1 sequence: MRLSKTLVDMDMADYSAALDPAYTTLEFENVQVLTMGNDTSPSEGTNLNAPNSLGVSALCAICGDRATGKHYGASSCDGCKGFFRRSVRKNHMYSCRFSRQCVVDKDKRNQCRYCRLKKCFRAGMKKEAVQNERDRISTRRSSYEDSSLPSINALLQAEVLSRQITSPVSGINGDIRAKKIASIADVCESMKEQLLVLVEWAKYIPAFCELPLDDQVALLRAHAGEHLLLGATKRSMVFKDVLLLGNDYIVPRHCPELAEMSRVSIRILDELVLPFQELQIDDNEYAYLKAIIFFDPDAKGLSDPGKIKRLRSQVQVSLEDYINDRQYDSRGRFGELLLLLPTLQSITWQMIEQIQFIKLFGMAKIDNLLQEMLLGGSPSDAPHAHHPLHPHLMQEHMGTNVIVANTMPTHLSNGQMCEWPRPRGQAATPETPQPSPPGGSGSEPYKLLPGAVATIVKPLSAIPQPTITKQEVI
# Assay: protein-binding microarray
# Settings: COS-7 nuclear extract on double-stranded Agilent 4x180k PBM; binding buffer, salt, pH and temperature not given; high values mean tight binding; double strand, one strand shown; sequences stand for … in …GCCTAGGGAGATTAGAGTATCGGTCGA
row,Sequence,binding signal (log2 normalized intensity)
1,CAGTTTGACCTTTGCATTCTTACCCAAGCC,4.4
2,CAGTGGACTTTGTCCTTCATCTATCTCCTT,5.04
3,AGGCTGGGGCCCCATCGACCTTTGCTCCCG,9.6
4,AGGCCATAGGGAAAGATAAAAAAGTTCCAG,-1.16
5,GCTAATGAGCACATTCTTCAATATCAGTGG,0.487
6,CACTGGAGGTTGAATTCCAAAGGTTATTTT,3.4
7,ATAGATAAGCACACTAAGGCTAAAGATTAC,-1.13
8,CCCACCTCCGGCCGGGAAGATGCCAGCCCC,2.12
9,TCAGCGGCCCTGTGCTGCCCCCGATAGCAC,4.28
10,TTTATTCAGGTGGCCACTGGCCCAGCGGAT,0.261
11,AAACATTAGCCAGGATCAGATTTGATAGCT,-1.14
12,TCACATACCAGTAAAAACAACTGCCACTTA,-1.13
13,TGAAGTCATATTGAACTCACTGACTTCCAT,1.12
14,AAGACTCAGTCGGCTGTCAAATCACTGAAG,-0.94
15,AAGAAGAGCCCAGACAAGCATTCTGCTGAA,-0.94
16,GGGGGTGAGTCAGTCCCCAGCAATTGGGAA,-0.702
17,AATGGACAACGGAAAGACAGAGGTGAGGCT,-1.13
18,GTGCAGTGATCAATCAGCAGCAAAGTCCTG,-1.08
19,CCTAAGGCCTCCAGAAGGAATGCAGCCCTG,-1.18
20,CCAAAATGTGTTAGGCAAGCAAACTGCAAA,-1.08

row,Sequence,binding signal (log2 normalized intensity)
1,ATATTTGCCAAGTGATAAGGAACCTAGGAA,-1.09
2,CCCTTCCTCGGTGGAGTTGACACAGACCTG,0.569
3,TGCAGTATGCCCCCCCACCCCACACACACA,6.7
4,GTATGTGAATGCCTGGGCATGGCTGTGTTC,1.05
5,CGGAGCGCGCGGGAGGAGGAGACAAAGGCC,2.27
6,GGGGGGTGGGGTGGAAGCTATGCCTGAGGC,-1.11
7,GAACCAAGAGAGCCATTGGTGTAACTCTGG,-0.929
8,AAGGCCAAGCCAGTTTCCAGGGAGGAGAGA,-1.11
9,CTTAAATTGTGCTGTGTCAGAGTTGTCCTG,1.9
10,GAATGGAGACACACCTGCGGTGACTGGAAG,-1.21
11,CTAAACCAGGATCCAGTCCTCACCCAGAAC,0.786
12,TGGCAATGGCTGCAGCTCTTCCACGTGAGA,-1.11
13,AACAAAAACCAAATCACAATTTTCAAGAAC,-1.14
14,TCTGGCTTCTCGTGAGTATTTTTTCAACAT,0.665
15,AAAGAGTACACAAAGGTATCAGGGCTCAGG,-1.08
16,GACAAAGTACAGAGCAGGTGCTCGGTGAGT,-1.25
17,TAACTCTCCAAATTCCAGGATCCAAGATCC,-1.09
18,TGAGACTGCCTCAAACAGCTTCGCCTCCTC,-1.11
19,CTTCAAAGGAGTGGAGGAAGGAAGAAGTGT,0.537
20,TCCTAGTCTTTAGAGTAACCATTCTTTCTG,0.183

# — paper PMC10726135
